In all, about 370,000 compounds went through this assay and about 150 (0.041%) were called active. The shares of active, inactive and inconclusive entries below differ from those in the screen. Calls come from the whole dose curve; as a rule, active = well fitted inhibition curve with a large enough effect; inconclusive = small, poorly fitted or top-dose-only effect; inactive = flat fitted curve, though single readings scatter. Potencies of inconclusive entries are left out as doubtful fits.
These molecules were tested against Beta-lactamase (Escherichia coli (strain K12)) (UniProt P00811) (assay: qHTS Inhibitors of AmpC Beta-Lactamase (assay with detergent)). Settings: AmpC hydrolysis of nitrocefin, absorbance 480 nm, 0.01% Triton; activity change, negative = inhibition: at 114 µM (top of the series).
Summary of the method: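 20 mM phosphate pH 7.0 + 0.01% (detergent screen) or 0.0001% Triton X-100; 5.3 nM AmpC reagent; cpd preinc 15 min RT; nitrocefin (800 uM stock) to start; A480 q20 s × 4 min; Activity was normalised to no-enzyme and no-compound control wells.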
Note: nearly all actives have a fitted effect of over 25% in size.
Potency is the fitted concentration of half-maximal effect; tags give direction and shape of the fitted curve.
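Throughout, for activity change, negative = inhibition: 0% = no-compound wells and -100% = no-enzyme wells.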

Chain of UniProt P00811 (P00811 whole entry, looked up): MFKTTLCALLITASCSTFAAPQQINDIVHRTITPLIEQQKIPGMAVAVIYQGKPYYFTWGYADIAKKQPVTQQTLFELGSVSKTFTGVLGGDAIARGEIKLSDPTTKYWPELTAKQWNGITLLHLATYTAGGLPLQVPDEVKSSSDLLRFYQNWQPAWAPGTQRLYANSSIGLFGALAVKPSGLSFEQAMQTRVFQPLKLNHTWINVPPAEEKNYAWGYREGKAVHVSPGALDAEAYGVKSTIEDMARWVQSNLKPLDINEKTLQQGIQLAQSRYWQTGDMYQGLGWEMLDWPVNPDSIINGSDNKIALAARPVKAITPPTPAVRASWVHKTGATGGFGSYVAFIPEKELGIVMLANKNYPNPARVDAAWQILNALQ

Question: CCOc1cc(CNC(=O)c2cc(-c3ccc(Cl)s3)nc3ccccc23)ccc1OC was tested. Which “activity change, negative = inhibition” value did it give?
Answer: inactive: 21.9%

Question: Which “activity change, negative = inhibition” value does the source give for COc1ccc(Cl)cc1/C=C1/C(=O)ON=C1C here?
Answer: inactive: -4.67%

Question: How did the “activity change, negative = inhibition” value turn out when COc1ccc(CCNC(=O)Cn2c(=O)cc(C(F)(F)F)c3c(C)nn(C)c32)c(OC)c1 was run?
Answer: inactive: 6.4%

Question: For COc1ccc2cc(C(c3nnnn3C3CCCC3)N3CCCCCC3)c3nnnn3c2c1 (configuration not stated), which Potency is on record?
Answer: inconclusive [inhibitor, partial curve, poor fit]

Question: With O=C(Nc1cccc(Cl)c1)c1cc(-c2ccco2)on1 as the molecule, how does the Potency read?
Answer: inconclusive [inhibitor, full curve, poor fit]

Question: CCOc1ccc2nc(N/C(N)=N/C(=S)Nc3cccc(C)c3)nc(C)c2c1 was tested. Which Potency did it give?
Answer: inconclusive [inhibitor, partial curve, poor fit]

Question: For COc1ccc(C(=O)NC(=S)Nc2cccnc2)cc1[N+](=O)[O-], which “activity change, negative = inhibition” value is on record?
Answer: inactive: -12.5%

Question: With COc1cc(/C=C/C(=O)NC(C)(C)C)ccc1OCc1ccccc1 as the molecule, how does the Potency read?
Answer: inconclusive [inhibitor, partial curve]

Question: With CC(C)C(=O)NCCSc1c[nH]c2ccccc12 as the molecule, how does the Potency read?
Answer: inconclusive [inhibitor, full curve, poor fit]

Question: With Oc1ccccc1-c1nc(NCc2ccco2)c2ccccc2n1 as the molecule, how does the Potency read?
Answer: inconclusive [inhibitor, full curve, poor fit]

Question: O=C(NC(=S)Nc1ccccc1N1CCOCC1)c1ccc(-c2cccc(Cl)c2)o1 was tested. Which Potency did it give?
Answer: inconclusive [inhibitor, partial curve, poor fit]

Question: Which Potency does the source give for Cc1ccccc1-c1nc(CS(=O)(=O)CC(=O)NCc2ccco2)c(C)o1 here?
Answer: inconclusive [inhibitor, single point]

Question: With CC1CCCN(c2c([N+](=O)[O-])c(=O)oc3ccccc23)C1 (configuration not stated) as the molecule, how does the Potency read?
Answer: inconclusive [inhibitor, full curve, poor fit]

Question: Which “activity change, negative = inhibition” value does the source give for CCC(CC)C(=O)Nc1cccc(-c2cn3cccnc3n2)c1 here?
Answer: inactive: -3.31%

Question: For COc1ccc(OC)c(NC(=O)c2cc3n(n2)C(C(F)(F)F)CC(c2ccc4c(c2)OCO4)N3)c1 (configuration not stated), which “activity change, negative = inhibition” value is on record?
Answer: inactive: -1.57%

Question: For CC(=O)c1ccc(S(=O)(=O)N2CCN(C(=O)CCC3CCCC3)CC2)cc1, which “activity change, negative = inhibition” value is on record?
Answer: inactive: 0%

Question: With COc1cccc(Cn2c(=O)n(-c3cc(C)cc(C)c3)c(=O)c3oc4ccccc4c32)c1 as the molecule, how does the “activity change, negative = inhibition” value read?
Answer: inactive: 7.54%

Question: How did the Potency turn out when O=C(Nc1ccccc1)ON=C1CCCC1 was run?
Answer: inconclusive [inhibitor, full curve, poor fit]

Question: Which Potency does the source give for COc1cc(NC(=O)[C@H]2CCCN2S(=O)(=O)c2cccc3cccnc23)cc(OC)c1OC here?
Answer: inconclusive [inhibitor, single point]

Question: With COc1ccc2c(c1)cc(C)c1nnc(SCC(=O)N(C)c3nc(-c4ccccc4)cs3)n12 as the molecule, how does the Potency read?
Answer: inconclusive [inhibitor, full curve]

Question: With CCN(CC)C(=O)Oc1ccccc1NC(C)=O as the molecule, how does the Potency read?
Answer: inconclusive [inhibitor, full curve, poor fit]

Question: Which Potency does the source give for N#CCCNC(=O)CCN1CCOCC1 here?
Answer: inconclusive [inhibitor, partial curve]

Question: Which Potency does the source give for Cc1ccc(Oc2ccc(S(=O)(=O)N3CCOCC3)cc2C(N)=O)c(-n2nc3ccccc3n2)c1 here?
Answer: inconclusive [inhibitor, full curve, poor fit]

Question: For Oc1c(CN2CCOCC2)cc(-c2ccccc2)cc1CN1CCOCC1, which “activity change, negative = inhibition” value is on record?
Answer: inactive: -0.649%

Question: How did the Potency turn out when CN(C)S(=O)(=O)c1cc(NC(=O)CN2CCN(c3ccccc3O)CC2)ccc1Cl was run?
Answer: inconclusive [inhibitor, full curve]

Question: For CCOC(=O)N1CCN(C(=O)CSc2nc(=O)n3ccc(C)cc3n2)CC1, which Potency is on record?
Answer: inconclusive [inhibitor, full curve, poor fit]

Question: COc1ccc2sc(N3C(=O)CC(Cc4cccc(C)c4)C3=O)nc2c1 (configuration not stated) was tested. Which Potency did it give?
Answer: inconclusive [inhibitor, full curve, poor fit]

Question: With O=C(CCSCc1cccc(F)c1)NCCc1ccccc1 as the molecule, how does the Potency read?
Answer: inactive

Question: How did the Potency turn out when Cc1cccc(Nc2n[nH]c(=S)s2)c1C was run?
Answer: inconclusive [inhibitor, single point]

Question: For O=C1NN(c2ccccc2)C(=O)/C1=C\c1ccccc1, which “activity change, negative = inhibition” value is on record?
Answer: inactive: 0.811%

Question: O=C(NCc1ccccc1)C1CCCN1S(=O)(=O)c1ccc(Cl)cc1 (configuration not stated) was tested. Which Potency did it give?
Answer: inconclusive [inhibitor, full curve, poor fit]

Question: With C/C(Cc1ccccc1)=N\NC(=O)CNC(=O)c1ccc(Cl)cc1Cl as the molecule, how does the Potency read?
Answer: inconclusive [inhibitor, single point]

Question: Cc1ccc2nsnc2c1S(=O)(=O)N(Cc1cc2cccc(C)c2[nH]c1=O)CC1CCCO1 (configuration not stated) was tested. Which Potency did it give?
Answer: inconclusive [inhibitor, single point]

Question: How did the “activity change, negative = inhibition” value turn out when COc1cc(NC(=O)c2cc(-c3ccccc3Cl)on2)cc(OC)c1OC was run?
Answer: inactive: -12.1%

Question: COc1ccc(C)c2sc(N(CCCN(C)C)C(=O)CS(=O)(=O)c3ccc(F)cc3)nc12 was tested. Which “activity change, negative = inhibition” value did it give?
Answer: inactive: -16.5%

Question: O=C(NNC(=O)c1cc(-c2ccccc2)n(-c2ccccc2)n1)c1cccc([N+](=O)[O-])c1 was tested. Which “activity change, negative = inhibition” value did it give?
Answer: inactive: -9.91%

Question: For CCCN1C(=O)c2cc(C(=O)Nc3ccc(OC)c(OC)c3)ccc2C1Nc1ccc(OC)c(OC)c1 (configuration not stated), which “activity change, negative = inhibition” value is on record?
Answer: inactive: 0.744%

Question: With COc1ccc2c(c1)c(CC(=O)Nc1cccc(S(N)(=O)=O)c1)c(C)n2C(=O)c1ccc(Cl)cc1 as the molecule, how does the Potency read?
Answer: inconclusive [inhibitor, full curve, poor fit]

Question: CC(=O)Nc1ccc(C(=O)N/N=C/c2cccnc2)cc1 was tested. Which Potency did it give?
Answer: inconclusive [inhibitor, partial curve, poor fit]

Question: CC(=O)c1c(-c2ccccc2)c2cc(Cl)ccc2[nH]c1=O was tested. Which Potency did it give?
Answer: inconclusive [inhibitor, single point]

Question: With CN(C)CCCCCNCCCNC(=O)/C=N\O as the molecule, how does the Potency read?
Answer: inconclusive [inhibitor, full curve, poor fit]

Question: C/C(=N\NC(=O)c1nn(C)c(C)c1Br)c1ccc(NC(=O)c2ccccc2F)cc1 was tested. Which “activity change, negative = inhibition” value did it give?
Answer: inactive: -6.73%

Question: CCN(CC)C(=O)CN1C(=O)C2(OCC(C)(c3ccccc3)CO2)c2ccccc21 (configuration not stated) was tested. Which Potency did it give?
Answer: inconclusive [inhibitor, full curve, poor fit]

Question: With CC(Cc1ccccc1)NC(=O)c1ccc([N+](=O)[O-])cc1 (configuration not stated) as the molecule, how does the Potency read?
Answer: inconclusive [inhibitor, partial curve]

Question: How did the Potency turn out when CCCN1C(=O)/C(=C2\SC(N3CCCCC3)=NC2=O)c2ccccc21 was run?
Answer: inconclusive [inhibitor, partial curve, poor fit]

Question: Which Potency does the source give for COc1ccc(CN(C(=O)c2cnccn2)C(C(=O)Nc2ccc(F)cc2)c2ccccc2)cc1 (configuration not stated) here?
Answer: inconclusive [inhibitor, partial curve]

Question: With COc1ccc(-n2cnc3cc(N)ccc32)cc1 as the molecule, how does the Potency read?
Answer: inconclusive [inhibitor, full curve]

Question: Which Potency does the source give for COc1ccc(S(=O)(=O)N2CCOC2CNC(=O)C(=O)NCCc2ccccc2)cc1C (configuration not stated) here?
Answer: inconclusive [inhibitor, single point]

Question: For Cn1cc([N+](=O)[O-])c(C(=O)Nc2ccc3c(C(F)(F)F)cc(=O)oc3c2)n1, which Potency is on record?
Answer: inconclusive [inhibitor, single point]

Question: Which “activity change, negative = inhibition” value does the source give for CCOC(=O)c1cn(Cc2cccc(Cl)c2)nn1 here?
Answer: inactive: 1.2%

Question: Which Potency does the source give for CCc1ccc(CNC(=O)CCn2ccc3cc(S(=O)(=O)N4CCCC4)ccc32)cc1 here?
Answer: inconclusive [inhibitor, partial curve, poor fit]

Question: With CCOC(=O)N1CCC(NC(=O)CN2C(=O)CSc3nc(C)cc(C)c32)CC1 as the molecule, how does the Potency read?
Answer: inconclusive [inhibitor, full curve, poor fit]

Question: Which Potency does the source give for C/C(=N\NC(=O)c1cccc(S(=O)(=O)N2CCCC2)c1)c1ccco1 here?
Answer: inconclusive [inhibitor, full curve, poor fit]

Question: With CCOc1ccc(OCc2ccc(C(=O)N3N=C(C(F)F)CC3(O)C(F)F)o2)cc1 (configuration not stated) as the molecule, how does the “activity change, negative = inhibition” value read?
Answer: inactive: -3.2%

Question: For CCc1sc(-c2c(C#N)c(N)nc3c2CCCCCC3)cc1[N+](=O)[O-], which Potency is on record?
Answer: inconclusive [inhibitor, full curve, poor fit]

Question: Which Potency does the source give for COc1ccc(-c2c(C#N)c(SCC(N)=O)nc3c2CCCC3)cc1 here?
Answer: inconclusive [inhibitor, full curve, poor fit]

Question: With COc1cc2nc(CN3CCN(S(=O)(=O)c4ccccc4)CC3)[nH]c(=O)c2cc1OC as the molecule, how does the Potency read?
Answer: inconclusive [inhibitor, full curve, poor fit]

Question: Which “activity change, negative = inhibition” value does the source give for COc1ccc(OC)c(NC(=O)C(Cc2ccccc2)NS(=O)(=O)c2ccc3c(c2)CCC(=O)N3)c1 (configuration not stated) here?
Answer: inactive: 11.2%

Question: Which Potency does the source give for Cn1cccc1/C=C1\SC(=S)N(NC(=O)c2cccc(Cl)c2)C1=O here?
Answer: inconclusive [inhibitor, single point]

Question: CC(C)c1ccc(NC(=O)[C@H](Cc2c[nH]c3ccccc23)NC(=O)[C@@H]2Cc3ccccc3CN2)cc1 was tested. Which “activity change, negative = inhibition” value did it give?
Answer: inactive: -7.12%

Question: Which “activity change, negative = inhibition” value does the source give for CCC1=NN2C(=N)/C(=C/c3ccc(OS(=O)(=O)c4ccccc4)cc3)C(=O)N=C2S1 here?
Answer: inactive: -8.76%

Question: COCCN(C(=S)Nc1cc(C)cc(C)c1)C(C)c1cccs1 (configuration not stated) was tested. Which “activity change, negative = inhibition” value did it give?
Answer: inactive: 1.76%

Question: Cc1cc(=O)oc2c3c(cc(OCC(=O)NCc4ccncc4)c12)OC(C)(C)CC3 was tested. Which “activity change, negative = inhibition” value did it give?
Answer: inactive: -14.1%

Question: O=C1C=C(c2ccccc2)C(O)(c2ccccc2)C1 (configuration not stated) was tested. Which Potency did it give?
Answer: inconclusive [inhibitor, single point]

Question: How did the Potency turn out when C#CC(CC)(CC)NC(=O)c1cc(S(=O)(=O)N2CCCCC2)ccc1N1CCOCC1 was run?
Answer: inconclusive [inhibitor, full curve, poor fit]

Question: How did the “activity change, negative = inhibition” value turn out when Cc1cccc(CSc2nnc(-c3ccccn3)n2N)c1 was run?
Answer: inactive: -11.4%

Question: For COc1ccc(-n2c(Cc3ccccc3)nnc2SCC(=O)N2CCCc3ccccc32)cc1, which Potency is on record?
Answer: inconclusive [inhibitor, partial curve, poor fit]

— PubChem BioAssay AID485294 (National Center for Advancing Translational Sciences (NCATS), 2010)
